Results: the antibiotic and cytotoxicity screens of Wong et al. (2023)
Some of the results follow.

Assays:
HSkMC = human skeletal muscle cells; test: cytotoxicity call (relative viability < 0.9); conditions: 10 µM
HepG2 = test: cytotoxicity call (relative viability < 0.9); conditions: 10 µM
S. aureus RN4220 = test: growth inhibition call (relative growth <= 0.2); conditions: 50 µM

C[C@H]1CN([C@@H](C)CO)C(=O)c2cc(NC(=O)Nc3cccc4ccccc34)ccc2O[C@H]1CN(C)C(=O)Nc1ccc2c(c1)OCO2
inactive: cytotoxicity call (HSkMC) | cytotoxicity call (HepG2) | growth inhibition call (S. aureus RN4220)

C[C@@H]1CN([C@H](C)CO)C(=O)Cc2cc(NC(=O)Nc3cccc4ccccc34)ccc2O[C@@H]1CN(C)Cc1ccc(-c2ccccc2)cc1
inactive: cytotoxicity call (HSkMC) | cytotoxicity call (HepG2) | growth inhibition call (S. aureus RN4220)

CNC(=O)C[C@@H]1CC[C@@H]2[C@H](COC[C@H](O)CN2C(=O)Nc2ccc3c(c2)OCO3)O1
inactive: cytotoxicity call (HSkMC) | cytotoxicity call (HepG2) | growth inhibition call (S. aureus RN4220)

C[C@@H]1CCCCO[C@@H](CN(C)Cc2ccncc2)[C@H](C)CN([C@H](C)CO)C(=O)c2cc(NC(=O)Nc3ccc4c(c3)OCO4)ccc2O1
inactive: cytotoxicity call (HSkMC) | cytotoxicity call (HepG2) | growth inhibition call (S. aureus RN4220)

COCC#Cc1ccc2c(c1)O[C@@H](CN(C)Cc1ccc3c(c1)OCO3)[C@@H](C)CN([C@H](C)CO)S2(=O)=O
inactive: cytotoxicity call (HSkMC) | cytotoxicity call (HepG2) | growth inhibition call (S. aureus RN4220)

NS(=O)(=O)c1ccc2c(c1)COC2
inactive: cytotoxicity call (HSkMC) | cytotoxicity call (HepG2) | growth inhibition call (S. aureus RN4220)

COc1cccc(S(=O)(=O)N[C@@H]2CC[C@H](CC(=O)NC3CCC3)O[C@@H]2CO)c1
inactive: cytotoxicity call (HSkMC) | cytotoxicity call (HepG2) | growth inhibition call (S. aureus RN4220)

C[C@H]1CN([C@@H](C)CO)C(=O)c2cccc(NC(=O)NC3CCCCC3)c2O[C@@H]1CN(C)Cc1ccc(C(F)(F)F)cc1
inactive: cytotoxicity call (HSkMC) | cytotoxicity call (HepG2) | growth inhibition call (S. aureus RN4220)

O=C(O)C1(c2ccccc2)CCCC1
inactive: cytotoxicity call (HSkMC) | cytotoxicity call (HepG2) | growth inhibition call (S. aureus RN4220)

CCCC(=O)O
inactive: cytotoxicity call (HSkMC) | cytotoxicity call (HepG2) | growth inhibition call (S. aureus RN4220)

Cc1cccc(S(=O)(=O)N2C[C@H](O)COC[C@@H]3O[C@H](CC(=O)NCc4ccncn4)CC[C@H]32)c1
inactive: cytotoxicity call (HSkMC) | cytotoxicity call (HepG2) | growth inhibition call (S. aureus RN4220)

C[C@H]1CN([C@@H](C)CO)C(=O)Cc2cc(NC(=O)Nc3ccc(F)cc3)ccc2O[C@@H]1CN(C)Cc1ccc(C(F)(F)F)cc1
inactive: cytotoxicity call (HSkMC) | cytotoxicity call (HepG2) | growth inhibition call (S. aureus RN4220)

C[C@@H]1CN([C@@H](C)CO)C(=O)Cc2cc(NC(=O)CCC(F)(F)F)ccc2O[C@H]1CN(C)S(=O)(=O)c1cn(C)cn1
inactive: cytotoxicity call (HSkMC) | cytotoxicity call (HepG2) | growth inhibition call (S. aureus RN4220)

O=C(O)c1cncc(C(=O)O)c1
inactive: cytotoxicity call (HSkMC) | cytotoxicity call (HepG2) | growth inhibition call (S. aureus RN4220)

C[C@@H]1CN([C@@H](C)CO)C(=O)c2cc(NC(=O)Nc3ccc(C(F)(F)F)cc3)ccc2O[C@@H]1CN(C)C(=O)Nc1cccc2ccccc12
inactive: cytotoxicity call (HSkMC) | cytotoxicity call (HepG2) | growth inhibition call (S. aureus RN4220)

C[C@@H]1CCCCO[C@@H](CN(C)S(=O)(=O)c2ccc(F)cc2)[C@@H](C)CN([C@@H](C)CO)C(=O)c2cc(NS(=O)(=O)c3ccc(Cl)cc3)ccc2O1
inactive: cytotoxicity call (HSkMC) | cytotoxicity call (HepG2) | growth inhibition call (S. aureus RN4220)

COc1ccc(CN(C)C[C@@H]2Oc3ccc(NS(C)(=O)=O)cc3C(=O)N([C@@H](C)CO)C[C@@H]2C)cc1
inactive: cytotoxicity call (HSkMC) | cytotoxicity call (HepG2) | growth inhibition call (S. aureus RN4220)

C[C@@H]1CCN(C(=O)[C@H](CCCNC(=N)N)NS(=O)(=O)c2cccc3c2NC[C@H](C)C3)[C@@H](C(=O)O)C1
inactive: cytotoxicity call (HSkMC) | cytotoxicity call (HepG2) | growth inhibition call (S. aureus RN4220)

CCCNC(=O)Nc1ccc2c(c1)OC[C@H](C)N(C(=O)C1CCOCC1)C[C@H](C)[C@H](OC)CN(C)C2=O
inactive: cytotoxicity call (HSkMC) | cytotoxicity call (HepG2) | growth inhibition call (S. aureus RN4220)

COCC#Cc1ccc2c(c1)O[C@@H](CN(C)C(=O)CN(C)C)[C@@H](C)CN([C@@H](C)CO)S2(=O)=O
inactive: cytotoxicity call (HSkMC) | cytotoxicity call (HepG2) | growth inhibition call (S. aureus RN4220)

C=CC[C@@H](CC(=O)N[C@@H](CO)Cc1ccccc1)C(=O)N[C@H](C)COC(=O)[C@H](CC=C)CC(=O)OC(C)(C)C
inactive: cytotoxicity call (HSkMC) | cytotoxicity call (HepG2) | growth inhibition call (S. aureus RN4220)

Nc1ncnc2c1ncn2CCN1CCCCC1
inactive: cytotoxicity call (HSkMC) | cytotoxicity call (HepG2) | growth inhibition call (S. aureus RN4220)

CN1C(=N)NC(=O)/C1=C/c1cccnc1
inactive: cytotoxicity call (HSkMC) | cytotoxicity call (HepG2) | growth inhibition call (S. aureus RN4220)

Cc1noc(C)c1S(=O)(=O)N(C)C[C@H]1Oc2c(NS(=O)(=O)c3cn(C)cn3)cccc2C(=O)N([C@H](C)CO)C[C@H]1C
inactive: cytotoxicity call (HSkMC) | cytotoxicity call (HepG2) | growth inhibition call (S. aureus RN4220)

C=C(C(=O)O[C@H]1CC=C(C)C[C@H](O)[C@H]2[C@H](C)C(=O)O[C@@H]2/C=C/1C)[C@@H]1CCC(=C)[C@@H]2C[C@H](O[C@@H]3O[C@H](CO)[C@@H](O)[C@H](O)[C@H]3O)C(=C)[C@@H]2C1
inactive: cytotoxicity call (HSkMC) | cytotoxicity call (HepG2) | growth inhibition call (S. aureus RN4220)

Cc1ccc(S(=O)(=O)Nc2ccc3c(c2)C(=O)N([C@H](C)CO)C[C@H](C)[C@@H](CN(C)C(=O)NC2CCCCC2)OCCCC[C@@H](C)O3)cc1
inactive: cytotoxicity call (HSkMC) | cytotoxicity call (HepG2) | growth inhibition call (S. aureus RN4220)

COc1ccc(C(=O)Nc2ccc3c(c2)C(=O)N(C)[C@@H]2CC[C@@H](CC(=O)NCC4CC4)O[C@H]2CO3)cc1
inactive: cytotoxicity call (HSkMC) | cytotoxicity call (HepG2) | growth inhibition call (S. aureus RN4220)

CCCC#Cc1ccc2c(c1)O[C@H](CN(C)C(=O)c1cnccn1)[C@H](C)CN([C@@H](C)CO)S2(=O)=O
inactive: cytotoxicity call (HSkMC) | cytotoxicity call (HepG2) | growth inhibition call (S. aureus RN4220)

C[C@H]1CN([C@@H](C)CO)C(=O)CCCn2nncc2CO[C@@H]1CN(C)S(=O)(=O)c1ccc(Cl)cc1
inactive: cytotoxicity call (HSkMC) | cytotoxicity call (HepG2) | growth inhibition call (S. aureus RN4220)
